Measurements published in PubChem BioAssay AID624418 (National Center for Advancing Translational Sciences (NCATS), 2012).
Among all 410,000 compounds or so, about 530 (0.13%) were called active. Inconclusive results, whose numbers are uncertain, are shown with a selection of clear calls. The call rests on the fitted dose curve; in most records, active means well fitted inhibition curve with a large enough effect; inconclusive means small, poorly fitted or top-dose-only effect, or another doubt; inactive means no such curve, though single readings can be large or run the other way. Where the call is inconclusive, the potency comes from a doubtful curve fit.
On the % scale 0 is the no-effect control and ±100 the full control effect; potency means the concentration at half of the fitted maximal effect.

Assay: qHTS of GLP-1 Receptor Inverse Agonists: Cytotox Screen
Details: HEK293 cAMP-luciferase reporter cells, luminescence, 24 h; activity change, negative = inhibition: at 38.3 µM (top of the series) unless noted
In short: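 Step one: seed cells (200 cells/uL, DMEM with 10% Nu serum, 1% pen-strep). Step two: 12-hour incubation at 37 deg C. Step three: pin 23 nL compound, incubate 24 hr. Step four: add luciferase reagent, read luminescence 12 min later.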
For `N=c1c2c(-c3ccccc3)c(-c3ccccc3)n(Cc3ccccc3)c2ncn1CCCO`, the Potency was inconclusive: 28.2 µM [inhibitor, single point]. In the case of `O=C(Nc1ncc([N+](=O)[O-])s1)c1ccc2c(c1)OCO2`, the Potency is reported as inconclusive: 10 µM [inhibitor, partial curve]. For `O=C(CSc1ccccn1)Nc1ccc2c(c1)CCC2`, the “activity change, negative = inhibition” value was inactive: 4.65%. For `CC1=NN(c2nc(C)cc(C)n2)C(=O)C1CCC(C)C` (configuration not stated), the Potency was inconclusive: 22.4 µM [inhibitor, single point]. In the case of `O=C(NCc1ccccc1CN1CCCC1)c1cccc(S(=O)(=O)Nc2ccc(F)cc2)c1`, the Potency is reported as inconclusive: 11.2 µM [inhibitor, single point]. With `O=S(=O)(NC(=S)NC1CCCCC1)c1ccc(Cl)cc1` the “activity change, negative = inhibition” value was inactive: -3.82%. In the case of `O=C(Cc1ccc(F)cc1)N1CCC(CC2CC(c3cccc(Br)c3)=NO2)(C(=O)NCC2CCCCC2)CC1` (configuration not stated), the Potency is reported as inconclusive: 28.2 µM [inhibitor, single point]. With `Cc1cccc(N=C2NC(=O)/C(=C\c3cccs3)S2)c1` the Potency was inconclusive: 31.6 µM [inhibitor, partial curve, poor fit]. With `O=C(CCNC(=O)c1ccc(Cl)cc1)Nc1ccc(F)cc1F` the Potency was inconclusive: 28.2 µM [inhibitor, single point]. In the case of `CC(C)=CCC[C@H](C)CC1Cc2[nH]c(=S)[nH]c(=O)c2C(c2ccc(Cl)cc2)O1` (some centres not stated), the Potency is reported as inconclusive: 12.6 µM [inhibitor, single point]. For `Cn1nnnc1SCCNCc1ccccc1OCc1ccccc1Cl`, the Potency was inconclusive: 0.501 µM [inhibitor, full curve, poor fit]. For `Oc1cccc(-c2nc3c4c(ncn3n2)-c2ccccc2CC42CCCC2)c1`, the Potency was inconclusive: 11.2 µM [inhibitor, single point]. With `CC1(C(=O)O)CCCN1C(=O)c1ccc(Cl)cc1Cl` (configuration not stated) the “activity change, negative = inhibition” value was inactive: -6.55%. With `CCNC(=S)N/N=C(\C)c1cc2ccccc2o1` the Potency was inconclusive: 1.78 µM [inhibitor, full curve]. With `Nc1nc(Sc2c([N+](=O)[O-])cc(C(F)(F)F)cc2[N+](=O)[O-])n[nH]1` the Potency was inconclusive: 28.2 µM [inhibitor, single point]. With `N#CCSc1nnc(-c2ccccc2O)n1Cc1ccccc1` the Potency was inconclusive: 5.01 µM [inhibitor, partial curve]. In the case of `CCN(CC)CC#CCC(O)(c1ccccc1)c1ccc(Br)cc1` (configuration not stated), the “activity change, negative = inhibition” value is reported as inactive: -23.8%. In the case of `CC(C)C[C@H](NC(=O)[C@@H]1O[C@H]1C(=O)O)C(=O)NCCCCN=C(N)N`, the Potency is reported as inconclusive: 7.08 µM [inhibitor, partial curve]. In the case of `CC1(C)CC(=O)C(C(C#Cc2ccccc2)C2=C(O)CC(C)(C)CC2=O)=C(O)C1`, the Potency is reported as inconclusive: 0.316 µM [inhibitor, full curve, poor fit]. For `CCN(CC)CCCN(C(=O)c1ccco1)c1nc(-c2ccc(C)cc2)cs1`, the Potency was inconclusive: 28.2 µM [inhibitor, single point]. For `CCC1=NN(C(=O)C(=O)Nc2ccc(Br)cc2)C(O)(C(F)(F)F)C1` (configuration not stated), the Potency was inconclusive: 10 µM [inhibitor, partial curve, poor fit]. In the case of `C/C(=N\OC(=O)c1cccc(Cl)c1)c1sc(C)nc1C`, the “activity change, negative = inhibition” value is reported as inactive: 9.31%. With `COc1ccc2nc(C)cc(Nc3ccc(Cl)c(Cl)c3)c2c1` the Potency was inconclusive: 28.2 µM [inhibitor, single point]. With `COc1ccc(C(=O)NCCSCc2ccccc2C)cc1` the Potency was inconclusive: 28.2 µM [inhibitor, single point]. For `C/C(Cc1ccccc1)=N\NC(=O)CNC(=O)c1ccc(Cl)cc1`, the “activity change, negative = inhibition” value was inactive: 17.1%. In the case of `COc1ccc2c(c1)C=C(CN1CCC(CO)(CCc3ccccc3)CC1)CO2`, the “activity change, negative = inhibition” value is reported as inactive: 1.04%. With `COc1cc2c(cc1OC)C(c1ccc(-c3ccc(Cl)cc3Cl)o1)=NCC2` the “activity change, negative = inhibition” value was inactive: 3.54%. In the case of `C=C(C)Cn1c(SCC(=O)N/N=C/c2c(O)ccc3ccccc23)nc2ccccc2c1=O`, the Potency is reported as inconclusive: 22.4 µM [inhibitor, single point]. For `COCC(=O)N(Cc1cc2cc(C)ccc2[nH]c1=O)c1cccc(C)c1C`, the “activity change, negative = inhibition” value was inactive: -7.33%. In the case of `CCCc1[nH]n(-c2nc3ccccc3s2)c(=O)c1C=NCCCOC`, the Potency is reported as inconclusive: 11.2 µM [inhibitor, single point]. In the case of `Cc1cccc(NC(=S)NCCC(c2ccccc2)c2ccccc2)c1`, the Potency is reported as inconclusive: 12.6 µM [inhibitor, partial curve, poor fit]. In the case of `COc1ccc2oc(=O)c(C(=O)Oc3ccc(NC(C)=O)cc3)cc2c1`, the “activity change, negative = inhibition” value is reported as inactive: -8.54%. With `Cc1cc(C)cc(N(CCC#N)C(=O)CSC2=Nc3ccccc3C3CC=NN23)c1` (configuration not stated) the Potency was inconclusive: 12.6 µM [inhibitor, single point]. For `NC(N)=Nc1nc(-c2ccccc2)c2ccccc2n1`, the Potency was inconclusive: 7.94 µM [inhibitor, partial curve]. In the case of `COc1ccc(-c2n[nH]c(=S)n2-c2ccc(C)cc2)cc1`, the Potency is reported as inconclusive: 11.2 µM [inhibitor, partial curve, poor fit]. For `Cc1ccccc1OCc1nc(-c2ccc(NC(=O)c3cccs3)cc2)no1`, the Potency was inconclusive: 5.01 µM [inhibitor, full curve]. With `c1ccc(-c2csc(NNC3=NCCCCC3)n2)cc1` the Potency was inconclusive: 14.1 µM [inhibitor, single point]. With `CC1(C)CC(=O)C(N=Nc2c(F)cccc2F)=C(O)C1` the Potency was inconclusive: 28.2 µM [inhibitor, single point]. In the case of `COc1ccccc1Nc1nn2c(=O)c3ccc(C(=O)NCCC4=CCCCC4)cc3nc2s1`, the Potency is reported as inconclusive: 3.16 µM [inhibitor, partial curve, poor fit]. With `CC(=O)n1cc([C@H]2C=C(C(=O)N3CCOCC3)O[C@@H](OCc3ccc(CO)cc3)C2)c2ccccc21` the Potency was inconclusive: 3.16 µM [inhibitor, partial curve, poor fit]. For `c1ccc(-c2nc3ccccc3o2)nc1`, the “activity change, negative = inhibition” value was inactive: -3.1%. With `Cc1ccc2cc(CN(CCCN3CCOCC3)C(=O)NC3CCCCC3)c(=O)[nH]c2c1C` the “activity change, negative = inhibition” value was inactive: -12.1%. With `OC(CNCC(c1ccc(Cl)cc1Cl)c1c[nH]c2ccccc12)c1ccccc1` (configuration not stated) the Potency was inconclusive: 28.2 µM [inhibitor, single point]. With `O=C(C1=C[C@H](c2ccc(Br)cc2)C[C@H](OCCCCO)O1)N1CCN(Cc2ccc3c(c2)OCO3)CC1` the Potency was inconclusive: 3.55 µM [inhibitor, full curve, poor fit]. With `COCCNC(=S)NN=C1CCC(c2ccccc2)CC1` (configuration not stated) the Potency was inconclusive: 22.4 µM [inhibitor, single point]. In the case of `COc1ccc(OCC(=O)NNc2c3ccccc3nc3ccccc23)cc1`, the Potency is reported as inconclusive: 11.2 µM [inhibitor, partial curve, poor fit]. With `Cc1cccc(NS(=O)(=O)c2ccc(C3CCCCC3)cc2)c1` the Potency was inconclusive: 10 µM [inhibitor, partial curve, poor fit]. In the case of `Cc1nc(-n2[nH]c3c(c2=O)CCCC3)[nH]c(=O)c1Cc1ccccc1`, the Potency is reported as inconclusive: 22.4 µM [inhibitor, partial curve, poor fit]. With `CC(C)(C)c1ccc(C(=O)N2CCC(c3nc4ccccc4o3)CC2)cc1` the “activity change, negative = inhibition” value was inactive: 6.33%. For `COc1cccc(/C=N/Nc2nc3ccccc3[nH]2)c1OC`, the “activity change, negative = inhibition” value was inactive: -0.225%. In the case of `Cc1cccc(N2CCN(C(=O)Cn3nc(Cc4cccnc4)c4ccccc4c3=O)CC2)c1C`, the “activity change, negative = inhibition” value is reported as inactive: -11.2%. For `COc1ccc(NC(=O)Cn2c(=O)ccc3cc(S(=O)(=O)N4CCCC4)ccc32)cc1Cl`, the “activity change, negative = inhibition” value was inactive: -5.89%. With `CC(C)C1C(C#N)=C(N)Oc2n[nH]c(-c3ccc4ccccc4c3)c21` (configuration not stated) the Potency was inconclusive: 10 µM [inhibitor, partial curve, poor fit]. For `CC(CCc1ccc(O)cc1)NCCc1ccc(O)c(O)c1` (configuration not stated), the Potency was inconclusive: 28.2 µM [inhibitor, single point]. For `CCc1cc(-c2n[nH]c(=S)n2-c2ccccc2C)cs1`, the Potency was inconclusive: 10 µM [inhibitor, single point]. For `CC1CN(C(=O)C2CCCC2)C(C)CN1C(=O)C1CCCC1` (configuration not stated), the Potency was inconclusive: 28.2 µM [inhibitor, single point]. For `Nc1ccc(N=Nc2ccccc2O)c(N)c1`, the Potency was inconclusive: 0.355 µM [inhibitor, full curve, poor fit]. In the case of `CN(C)CCCOc1ccc(C(C)(C)c2ccccc2)cc1`, the Potency is reported as inconclusive: 7.08 µM [inhibitor, partial curve, poor fit]. With `CCCCn1c(NCc2ccc(N(C)C)cc2)nc2ccccc21` the Potency was inconclusive: 14.1 µM [inhibitor, single point]. For `O=C(Nc1cccc(OC(F)(F)F)c1)[C@@H]1O[C@H](CO)[C@H](O)[C@H](O)[C@H]1O`, the “activity change, negative = inhibition” value was inactive: 0.498%. In the case of `CCN(c1cccc(C)c1)S(=O)(=O)c1ccc(-c2coc(C)n2)cc1`, the Potency is reported as inconclusive: 2.82 µM [inhibitor, full curve, poor fit]. For `COCCCNC(=S)N/N=C/c1ccc2ccccc2c1`, the Potency was inconclusive: 12.6 µM [inhibitor, single point]. For `COc1ccc(NC(=O)CCc2c(C)nc3nc(CNC(=O)OC(C)(C)C)nn3c2C)cc1OC`, the “activity change, negative = inhibition” value was inactive: 8.63%. With `COC1=C(Nc2ccc(O)cc2)C(=O)c2ccccc2C1=O` the Potency was inconclusive: 11.2 µM [inhibitor, single point]. With `CCc1nc2c(OCCC3CCCCC3)cccn2c1N(C)C(=O)c1ccc(OC)cc1` the Potency was inconclusive: 11.2 µM [inhibitor, partial curve]. For `Cc1sc(-n2c(C)cc(/C=C3\SC(=S)NC3=O)c2C)c(C#N)c1C`, the Potency was inconclusive: 14.1 µM [inhibitor, single point]. For `CCc1ccc(S(=O)(=O)/N=C2\C=C(Nc3ccc(C(=O)O)cc3)C(=O)c3ccccc32)cc1`, the Potency was inconclusive: 28.2 µM [inhibitor, single point].
